This passage reports activity change, negative = inhibition results from PubChem BioAssay AID1745853 (National Center for Advancing Translational Sciences (NCATS), 2022).

Structures are written as SMILES. The list shows a part of the results. Further columns of the screen follow, without active or inactive calls.

Experiment in all cases: Primary Screen for Target Class Profiling of Small Molecule Inhibitors of Methyltransferases
In test [1] the target is Glycine N-methyltransferase (Homo sapiens) (UniProt Q14749). Particulars: purified enzyme, MTase-Glo SAH luminescence; measured here: GNMT inhibition; at 40 µM; stronger effect = lower value. The procedure, abridged:
(§1)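 Each enzyme was assayed with SAM and its substrate. SAH formation detected by MTase-Glo luminescence; single-point 40 uM screen[…].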

The target of test [2] is Guanidinoacetate N-methyltransferase (Homo sapiens) (UniProt Q14353). Particulars: purified enzyme, MTase-Glo SAH luminescence; measured here: GAMT inhibition; at 40 µM; stronger effect = lower value. In a few lines: as §1
Test [3] addresses Histamine N-methyltransferase (Homo sapiens) (UniProt P50135). Particulars: purified enzyme, MTase-Glo SAH luminescence; measured here: HNMT inhibition; at 40 µM; stronger effect = lower value. In a few lines:
as §1

Test [4] deals with Nicotinamide N-methyltransferase (Homo sapiens) (UniProt P40261). Particulars: purified enzyme, MTase-Glo SAH luminescence; measured here: NNMT inhibition; at 40 µM; stronger effect = lower value. The procedure, abridged:
as §1

The target of test [5] is Phenylethanolamine N-methyltransferase (Homo sapiens) (UniProt P11086). Particulars: purified enzyme, MTase-Glo SAH luminescence; measured here: PNMT inhibition; at 40 µM; stronger effect = lower value. In a few lines: as §1
% is scaled to controls: 0 for no effect and ±100 for the full control effect.

Take `O=[N+]([O-])c1cn2c(n1)OC[C@@H](OCc1ccc(-c3ccc(OC(F)(F)F)cc3)nc1)C2`: the activity change, negative = inhibition in test [1] was -0.307%; in test [2], -4.51%; in test [3] it was 9.68%; in test [4], -22.4%; in test [5], -6.94%.

With `CN1C(=O)c2cc(C(=O)N3CCN(c4ncccn4)CC3)nn2CC1(C)C(=O)NC1CCCCCC1` (configuration not stated), the activity change, negative = inhibition in test [1] was -5.57%; in test [2] it was 0%; in test [3], -2.63%; in test [4], -7.67%; in test [5] it was -5.57%.

As to `CC1(C(=O)NC2CCCC2)Cn2c(cc3ccccc32)C(=O)N1C1CCCCC1` (configuration not stated), the activity change, negative = inhibition in test [1] is -2.78%; in test [2], 1.93%; in test [3], -2.4%; in test [4], -5.55%; in test [5], -4.39%.

Take `CC(C)c1ccc(NC(=O)c2ncn3c2C(=O)N(C2CC2)C(C)(C(=O)NCc2ccc(F)cc2)C3)cc1` (configuration not stated): the activity change, negative = inhibition in test [1] was -10.5%; in test [2] it was 0%; in test [3] it was 2.6%; in test [4], 0.362%; in test [5] it was 1.8%.

Take `COCC1CN(Cc2c(C)n[nH]c2C)CC12CCNCC2` (configuration not stated): the activity change, negative = inhibition in test [1] is -4.47%; in test [2], -8.37%; in test [3], -8.63%; in test [4] it was -2.29%; in test [5] it was -1.5%.

In the case of `CC(C)=CCC[C@](C)(O[C@@H]1O[C@H](CO[C@@H]2O[C@H](CO)[C@@H](O)[C@H](O)[C@H]2O)[C@@H](O)[C@H](O)[C@H]1O)C1CC[C@]2(C)[C@@H]1[C@H](O)CC1[C@@]3(C)CC[C@H](O[C@@H]4O[C@H](CO)[C@@H](O)[C@H](O)[C@H]4O[C@@H]4O[C@H](CO)[C@@H](O)[C@H](O)[C@H]4O)C(C)(C)[C@@H]3CC[C@]12C` (some centres not stated), the activity change, negative = inhibition in test [1] is -1.98%; in test [3] it was 3.69%.

On to `CN1C(=O)c2cc(C(=O)Nc3ccccc3Br)nn2CC1(C)C(=O)NC1CCCCC1` (configuration not stated), for which the activity change, negative = inhibition in test [1] turned out to be 3.67%; in test [2], 0%; in test [3], 6%; in test [4], 8.74%; in test [5], 3.13%.

`Cc1ccc(CCNC(=O)c2nnn3c2COC(c2ccc(Cl)cc2)C3)cc1` (configuration not stated): the activity change, negative = inhibition in test [1] is 2.63%; in test [2] it was 0%; in test [3] it was 1.94%; in test [4], -1.91%; in test [5] it was 0.929%.

Turning to `CC(C)OCCCNC(=O)CCCc1nnc2n3nc(-c4ccccc4)nc3c3ccccc3n12`, the activity change, negative = inhibition in test [1] was 1.3%; in test [2] it was 4.39%; in test [3], 4.14%; in test [4] it was 11.1%; in test [5], -0.598%.

As for `CC(=O)N1CCC(NCc2cccnc2Oc2ccccc2C)CC1`, the activity change, negative = inhibition in test [1] was -4.57%; in test [2], 0.007%; in test [3], -1.11%; in test [4], -2.8%; in test [5], 0.316%.

In the case of `COc1ncc(Nc2ncc([C@@H](C)N3CCN(S(C)(=O)=O)CC3)cc2-c2nc(C)nc(N)n2)cc1F`, the activity change, negative = inhibition in test [1] was -17.6%; in test [2], -14.9%; in test [3], -18.4%; in test [4], -22.3%; in test [5] it was -32.2%.

Take `CC(C)(OC1OC(CO)C(O)C(O)C1O)C1CCC(O)(CO)C2CC(=O)C(C)(O)C2C1` (configuration not stated): the activity change, negative = inhibition in test [1] is 4.79%; in test [2] it was 5.28%; in test [3] it was 9.09%; in test [4], -5.54%; in test [5] it was 0.727%.

As to `CCOC(=O)c1cc2n(n1)CC(C)(C(=O)NCc1ccccc1)N(CCc1ccc(OCC)cc1)C2=O` (configuration not stated), the activity change, negative = inhibition is -3.13% in test [1]; -1.08% in test [2]; 2.83% in test [3]; -2.57% in test [4]; -2.89% in test [5].

For the compound `CCOc1cc(CC(=O)NC(CC(C)C)c2ccccc2N2CCCCC2)ccc1C(=O)O` (configuration not stated), the figures for the activity change, negative = inhibition in test [1] and in test [3] were -4.69% and 1.61%, respectively.

Regarding `CS(=O)(=O)c1ccc(-c2cnc(N)c(C(=O)Nc3ccccc3)n2)cc1`, the activity change, negative = inhibition in test [1] is -4.09%; in test [2], 7.77%; in test [3] it was 4.65%; in test [4], -10.1%; in test [5] it was -1.7%.

For the compound `CCOc1ccccc1CN1C(=O)c2cc3ccccc3n2CC1(C)C(=O)NCCCOC(C)C` (configuration not stated), the activity change, negative = inhibition in test [1] turned out to be 3.79%; in test [2], 0.785%; in test [3], 1.68%; in test [4], 5.47%; in test [5], 0.169%.

For `NS(=O)(=O)c1cc(Cl)c(Cl)c(S(N)(=O)=O)c1`, the activity change, negative = inhibition in test [1] was 6.22%; in test [2] it was 10.5%; in test [3] it was 8.41%; in test [4], -3.73%; in test [5] it was 5.28%.

As for `CC(C)CCNC(=O)C1(C)Cn2c(cc3ccccc32)C(=O)N1CCCc1ccccc1` (configuration not stated), the activity change, negative = inhibition in test [1] is -2.11%; in test [2], 6.35%; in test [3] it was 0.185%; in test [4], -3.89%; in test [5], -1.42%.

Consider `CCc1nc(-c2c3n(c(=O)n(CC(=O)Nc4cccc(C)c4)c2=O)CCCCC3)no1`, for which the activity change, negative = inhibition in test [1] is -2.35%; in test [2], 0.324%; in test [3], 1.39%; in test [4], -1.65%; in test [5] it was 1.68%.

`CCOC(=O)c1cc2n(n1)CC(C)(C(=O)NC1CCCC1)N(c1cccc(OC)c1)C2=O` (configuration not stated): the activity change, negative = inhibition was found to be 0.522% in test [1]; 0.73% in test [2]; 0.905% in test [3]; 5% in test [4]; 3.13% in test [5].

Take `Cc1ccc(NC(=O)N2Cc3c(sc4c3CCCC4)-n3cccc3C2c2ccccc2)cc1` (configuration not stated): the activity change, negative = inhibition in test [1] is 1.98%; in test [2] it was 4.25%; in test [3] it was 4.75%; in test [4], -1.17%; in test [5] it was 5%.

Take `COC(=O)c1ncn2c1C(=O)N(c1ccc3c(c1)OCO3)C(C)(C(=O)NCCCOC(C)C)C2` (configuration not stated): the activity change, negative = inhibition in test [1] was found to be 3.42%; in test [2] it was 0.477%; in test [3], 14.7%; in test [4], 4.07%; in test [5], 9.9%.

As to `COCc1c(O)c(C(=O)O)c(C)c2c1OC(=O)c1c(C)cc(O)c(CO)c1O2`, the activity change, negative = inhibition was -12.7% in test [1]; -10.2% in test [2]; 4.63% in test [3]; -16.5% in test [4]; -8.46% in test [5].

With `C=Cc1ccc(CSc2nnc3n(Cc4ccccc4)c(=O)c4ccccc4n23)cc1`, the activity change, negative = inhibition was -0.516% in test [1]; 3.3% in test [2]; -3.92% in test [3]; -0.244% in test [4]; 1.73% in test [5].

Take `Cc1ccccc1N1C(=O)c2cc(-c3ccco3)nn2CC1(C)C(=O)NC1CCCCC1` (configuration not stated): the activity change, negative = inhibition in test [1] is -4.17%; in test [2], 2.35%; in test [3], -6.92%; in test [4] it was 2.54%; in test [5] it was -6.43%.

With `C[C@@H]1O[C@@H](O[C@H]2[C@H](O)[C@@H](O)[C@H](O[C@H]3[C@H](O[C@H]4CC[C@@]5(C)C(=CC[C@@H]6C5CC[C@]5(C)[C@@H]7[C@H](C[C@@H]65)O[C@]5(CC[C@@](C)(CO[C@@H]6O[C@H](CO)[C@@H](O)[C@H](O)[C@H]6O)O5)[C@H]7C)C4)O[C@H](CO)[C@@H](O)[C@@H]3O)O[C@@H]2CO)[C@H](O)[C@H](O)[C@H]1O` (some centres not stated), the activity change, negative = inhibition is 1.1% in test [1]; 0.307% in test [2]; 11.5% in test [3]; -12.7% in test [4]; -4.63% in test [5].

As to `Cc1ccsc1CN1CCc2[nH]nc(C(=O)N(C)C)c2C1`, the activity change, negative = inhibition in test [1] was -7.76%; in test [2], -8.69%; in test [3], -3.97%; in test [4], -18.9%; in test [5], -8.14%.

As to `O=S(=O)(c1ccccc1)c1nnn2c1nc(NCCc1ccc(Cl)cc1)c1ccccc12`, the activity change, negative = inhibition was -3.33% in test [1]; 5.53% in test [2]; 1.08% in test [3]; -1.03% in test [4]; -3.51% in test [5].

In the case of `C[C@H](NC(CCc1ccccc1)C(=O)O)C(=O)N1CCC[C@H]1C(=O)O` (some centres not stated), the activity change, negative = inhibition was -6.84% in test [1]; 3.61% in test [2]; 0.808% in test [3]; -5.27% in test [4]; 2.17% in test [5].

As for `O=C(c1cc[n+]([O-])cc1)N1CCC2(CCCN(CCC3CCCCC3)C2)C1` (configuration not stated), the activity change, negative = inhibition in test [1] is -2.29%; in test [2], -0.67%; in test [3], -2.13%; in test [4], -12%; in test [5], 11%.

Consider `O=c1c(-c2ccc(O)cc2)coc2cc(O)ccc12`, for which the activity change, negative = inhibition is -6.16% in test [1]; 3.05% in test [2]; -0.645% in test [3]; -13.1% in test [4]; -5.47% in test [5].

Regarding `Cc1cccc(N2CCN(C(=O)c3ccc4c(=O)[nH]c5c(C(=O)NC(C)C)sc(=S)n5c4c3)CC2)c1C`, the activity change, negative = inhibition in test [1] was -61.2%; in test [2], -0.081%; in test [3], -25.7%; in test [4], -64%; in test [5], -13.8%.

As for `CCNC(=O)N1CC(C(=O)NCc2cccc(C)c2)CC(c2ccc(F)c(C)c2)C1` (configuration not stated), the activity change, negative = inhibition in test [1] is -9.73%; in test [2] it was -10.5%; in test [3] it was -7.49%; in test [4] it was -26.5%; in test [5], -14.5%.

Regarding `C[C@@H]1CN(C(=O)c2cc(S(N)(=O)=O)ccc2F)CC[C@]1(C)O`, the activity change, negative = inhibition in test [1] was -3.39%; in test [2] it was -4.65%; in test [3], -1.1%; in test [4] it was -10.7%; in test [5] it was -6.16%.

Regarding `CC1(C)CC[C@]2(C(=O)O)CC[C@]3(C)C(=CC[C@@H]4[C@@]5(C)CC[C@H](O)C(C)(C)[C@@H]5CC[C@]43C)[C@@H]2C1`, the activity change, negative = inhibition is 1.45% in test [2], -14.7% in test [4] and 2.3% in test [5].
